From paper PMC4336329 (PLoS ONE, 2015)
About 14,000 (4.5%) of roughly 310,000 compounds showed an effect of 50% or more. Effects have a minus sign here. Some of the results follow.

Biological target: human ether-à-go-go-related gene (hERG) potassium channel (human, UniProt Q12809)
Test: primary screen, population patch clamp on CHO cells stably expressing hERG
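Further: peak tail current of the secondary pulse compared with the same well before compound.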

human ether-à-go-go-related gene (hERG) potassium channel, sequence (Q12809 whole entry, looked up): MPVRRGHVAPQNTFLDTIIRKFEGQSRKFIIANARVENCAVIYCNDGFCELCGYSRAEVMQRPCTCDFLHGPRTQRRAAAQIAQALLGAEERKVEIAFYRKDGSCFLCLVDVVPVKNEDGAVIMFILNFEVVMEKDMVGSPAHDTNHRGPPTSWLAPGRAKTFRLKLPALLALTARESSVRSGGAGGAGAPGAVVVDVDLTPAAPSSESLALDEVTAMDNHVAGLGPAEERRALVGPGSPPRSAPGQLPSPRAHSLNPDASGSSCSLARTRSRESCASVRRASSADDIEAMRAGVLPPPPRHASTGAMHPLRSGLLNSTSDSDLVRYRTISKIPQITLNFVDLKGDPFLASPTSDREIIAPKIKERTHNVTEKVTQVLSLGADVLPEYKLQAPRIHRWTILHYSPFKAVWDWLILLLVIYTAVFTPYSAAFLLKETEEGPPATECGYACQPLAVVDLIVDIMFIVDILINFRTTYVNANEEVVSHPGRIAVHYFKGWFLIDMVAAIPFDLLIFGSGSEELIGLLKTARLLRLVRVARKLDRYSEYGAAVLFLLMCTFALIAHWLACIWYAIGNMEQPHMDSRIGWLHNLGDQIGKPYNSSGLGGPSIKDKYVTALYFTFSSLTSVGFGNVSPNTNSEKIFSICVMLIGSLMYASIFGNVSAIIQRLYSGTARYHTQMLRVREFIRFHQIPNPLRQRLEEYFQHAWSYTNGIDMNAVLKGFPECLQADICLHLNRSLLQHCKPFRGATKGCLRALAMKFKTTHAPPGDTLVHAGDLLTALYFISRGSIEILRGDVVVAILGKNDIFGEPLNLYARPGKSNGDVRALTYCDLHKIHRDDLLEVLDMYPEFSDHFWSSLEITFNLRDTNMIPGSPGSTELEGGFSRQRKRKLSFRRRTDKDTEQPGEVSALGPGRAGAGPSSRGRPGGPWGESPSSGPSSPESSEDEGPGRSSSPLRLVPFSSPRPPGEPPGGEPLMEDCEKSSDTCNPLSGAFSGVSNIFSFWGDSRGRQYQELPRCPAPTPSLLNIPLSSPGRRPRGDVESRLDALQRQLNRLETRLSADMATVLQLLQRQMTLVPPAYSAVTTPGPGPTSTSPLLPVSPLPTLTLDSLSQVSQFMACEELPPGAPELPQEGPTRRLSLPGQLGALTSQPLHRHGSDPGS

Compound	hERG current change (%, negative = inhibition) at 10uM [%]
Cc1c(C(=O)N/N=C/c2ccccc2)sc(=S)n1C	2.95
CCC(C)(C)NC(=O)CN(C(=O)CNS(=O)(=O)c1ccccc1)c1ccc2c(c1)OCCO2	6.92
Cc1ccccc1CSCC(=O)c1c(N)n(C)c(=O)n(C)c1=O	-17.5
CCN(CC)C(=O)C[n+]1cccc(C(N)=O)c1	9.81
CC1CCCCC1NC(=O)CCc1nc2sc3c(c2c(=O)[nH]1)CCCC3 (centres unmarked)	-15.3
COc1ccc(-n2cc(-c3ccc(Br)cc3)[nH]c2=S)cc1	18
CCn1c(SCC(=O)NCC2CCCO2)nc2c(c1=O)SCC2 (centres unmarked)	20
NC(=O)CCN(Cc1ccccc1)S(=O)(=O)c1ccccc1	-9.98
CC(C)(C)c1ccc(-c2nn(CCC#N)cc2/C=N/O)cc1	6.96
COc1ccc(NC(=O)c2ccc(OCC3CCCO3)cc2)cc1OC (centres unmarked)	5.92
Cc1ccc(NC(=O)CSc2ccc(-c3ccccn3)nn2)cc1	2
CC/C(=N\NC(=O)c1c[nH]c2ccccc12)c1cccs1	10.9
N#Cc1cc2c(nc1SCC(=O)O)CCCCC2	3.05
O=C(CN1C(=O)NC2(CCCc3ccccc32)C1=O)N1CCCCC1 (centres unmarked)	22.2
CCOC(=O)N1CCN(C(=O)c2cccn3c(=O)c4c5c(sc4nc23)CCCC5)CC1	-44.7
COc1cc(OC)cc(C(=O)Nc2ccc(S(=O)(=O)Nc3cnc4ccccc4n3)cc2)c1	3.23
CCc1ccc(NC(=O)C2CCCN(S(=O)(=O)c3c(C)[nH]c(=O)[nH]c3=O)C2)cc1 (centres unmarked)	19.4
N/C(=N/S(=O)(=O)c1ccccc1)c1cccc([N+](=O)[O-])c1	-15.8
CN1CCC2(CC1)CC(NC=O)c1ccccc1O2 (centres unmarked)	25.9
C[C@H](NC(=O)[C@H]1N2C(=O)c3ccccc3C2SC1(C)C)C(=O)NCc1ccncc1 (some centres unmarked)	33.8
CN1C2CCC1CC(OC(=O)c1ccc(Cl)cc1)C2.Cl (centres unmarked)	-48.9
CCN(CC)S(=O)(=O)c1ccc(C(=O)OCC(=O)NCc2ccco2)cc1	-28.5
OCC1(Cc2ccccc2)CCCN(Cc2ccn[nH]2)C1 (centres unmarked)	-11.8

Compound	hERG current change (%, negative = inhibition) at 10uM [%]
O=C(N/N=C/c1cccnc1)c1cc(-c2cccs2)nc2ccccc12	-20
COC(=O)c1cnn(-c2ccccc2)c1C(OC)OC	6.12
CCOc1nnc(C)c2c(C)n(-c3cccc(OC)c3)nc12	3.25
CCSc1nnc(NC(=O)COc2ccccc2)s1	4.88
N#CC1(c2ccccc2)CCN(C2CC(=O)N(c3cccc(F)c3)C2=O)CC1 (centres unmarked)	17.4
O=C(Cn1c(=O)oc2ccccc21)Nc1ccc(Cl)cc1Cl	9.56
COc1ccc(C2NC(=O)NC(C)=C2C(=O)OCc2ccccc2)cc1 (centres unmarked)	2.79
O=c1[nH]c(CN(CCc2ccccc2)S(=O)(=O)c2ccc(Cl)cc2)nc2ccccc12	-1.14
Cc1nc2ccccc2n1CC(=O)NC1CCCC1	14
COc1cc(/C(O)=C(\C#N)c2nc3ccccc3[nH]2)cc(OC)c1OC	17.7
Cc1cccc(N(C)S(=O)(=O)c2ccc3[nH]cc(C(=O)N4CCOCC4)c(=O)c3c2)c1	6.19
CCO[C@H]1OC(C(=O)N2CCN(C)CC2)=C[C@@H](c2ccc(C(F)(F)F)cc2)[C@@H]1CCCO	8.75
COC(=O)c1ccc(C(=O)N(CCN(C)C)c2nc3c(Cl)cccc3s2)cc1.Cl	-54.9
Cc1ccc(C)c(S(=O)(=O)N/N=C/c2ccc(F)cc2)c1	-9.43
CCNC(=S)NNC(=O)c1ccc(OC(F)F)cc1	10.8
CC(=O)Oc1ccc(C2C3=C(CC(C)(C)CC3=O)Nc3cc4c(cc32)OCCO4)cc1 (centres unmarked)	18.5
CCOc1cc(NC(=O)c2ccco2)c(OCC)cc1NC(=O)Cc1ccc(OC)c(OC)c1	-5.23
CCOc1ccc(NC(=O)CCN2CCN(S(=O)(=O)c3ccc(OC)cc3)CC2)cc1	-28.8
CC(C(=O)NC1CCCC1)N1CCN(Cc2ccccc2)CC1 (centres unmarked)	28.6
COc1cc(C(=O)NCCC2=CCCCC2)cc(OC)c1OC	-5.65
CCCCCCCCCCCCCCCC[N+](C)(C)C.O.[OH-]	-0.893
NC(=O)/C=C\c1cn(-c2ccccc2)nc1-c1ccc2c(c1)OCCO2	-1.78
COc1ccccc1OCC(=O)Nc1ccc(S(=O)(=O)Nc2nccs2)cc1	15.4

Compound	hERG current change (%, negative = inhibition) at 10uM [%]
O=[N+]([O-])c1ccccc1CN1CCN(c2ncccn2)CC1	5.81
Cc1c(C(=O)C(=O)N2c3ccc(F)cc3CCC2C)c2ccccc2n1C (centres unmarked)	-27.8
CC(C)N(C(=O)Cn1c(=O)oc2ccccc21)c1ccccc1	6.95
COc1ccccc1NC(=O)Nc1nnc(C(C)c2ccccc2)s1 (centres unmarked)	6.01
O=C(Nc1ccc(NC(=O)c2cc3ccccc3o2)cc1)c1ccc2c(c1)OCCO2	13.2
O=C1CCc2cc(S(=O)(=O)N3CCCC3C(=O)NC3CCCCCCC3)ccc2N1 (centres unmarked)	-50.3
COCCCNC(=S)N(CCCO)Cc1cc2cc3c(cc2[nH]c1=O)OCCO3	13.6
N#Cc1cc(Oc2cccnc2)c(Oc2cccnc2)cc1C#N	-4.26
Cc1ccc2[nH]c(=O)c3cc(C(=O)N(C)c4ccc(C)c(C)c4)sc3c2c1	-7.21
COc1ccc(/C(O)=C/C(=O)C(=O)NNC(=O)C(O)(c2ccccc2)c2ccccc2)cc1	-1.19
Cc1ccc2nc(N(CCN(C)C)C(=O)C3=COCCO3)sc2c1.Cl	-44.1
O=C(O)c1cccc(NS(=O)(=O)c2cccc3cccnc23)c1	5.51
NS(=O)(=O)c1cc2c(cc1Cl)NC(C1C[C@H]3C=C[C@@H]1C3)NS2(=O)=O (some centres unmarked)	18.9
NC(=O)c1ccccc1NC(=O)CN1CCN(Cc2ccc(Cl)cc2Cl)CC1	-76.1
S=c1[nH]nc(-c2ccncc2)n1/N=C/C=C/c1ccccc1	8.71
Cc1cc(C(=O)NCCCN2CCCC2=O)cs1	17.7
CC1CCCC(C)N1NC(=O)c1ccc(Cl)c(S(N)(=O)=O)c1 (centres unmarked)	-4.12
Cc1ccc2cc(C#N)c(N3CCCN(S(=O)(=O)c4ccc(F)cc4)CC3)nc2c1	2.01
Cc1cc(C=C2C(=O)NC(=S)NC2=O)c(C)n1-c1ccc2c(c1)OCO2	7.38
Cc1ccc2c(c1)-n1c(nc3cc(F)ccc3c1=O)C(Cc1ccccc1)NC2=O (centres unmarked)	-7.13
Cc1ccccc1C(=O)Nc1ccc(C(=O)N/N=C/c2ccncc2)cc1	2.08
CCOC(=O)N1CCN(C(=O)c2ccc(Cl)c(S(=O)(=O)N3CCOCC3)c2)CC1	-13.1
O=C1CCc2cc(S(=O)(=O)NCCc3ccccc3)cc3c2N1CC3	-7.2

Compound	hERG current change (%, negative = inhibition) at 10uM [%]
O=C(/C=C/c1ccco1)Nc1ccc2nc3n(c(=O)c2c1)CCCC3	-8.17
COc1cc(OC)c(C(=O)Nc2cccnc2)cc1OC	-5.03
CC1=NN(C(N)=S)C(=O)C1N=Nc1ccccc1 (centres unmarked)	32.6
CCC(CO)NCCNC(CC)CO (centres unmarked)	13.5
COc1cc(/C=C2/SC(=S)N(CC(=O)O)C2=O)ccc1OC(=O)c1ccco1	3.09
CCOC(=O)c1ccc(NC2c3ccccc3C(=O)N2c2cccnc2)cc1 (centres unmarked)	-57
CCOC(=O)[C@H]1[C@H]2COc3ccc(Cl)cc3[C@@H]2N2C(=O)c3ccccc3NC(=O)[C@@]12C	2.71
Cc1nonc1CN(C)C(=O)CC1C(=O)NCCN1Cc1ccccc1F (centres unmarked)	19.3
O=S(=O)(CCc1nc2ccccc2o1)c1ccc2ccccc2c1	7.8
Cc1ccc(NC(=S)N(CCCN2CCOCC2)Cc2ccco2)cc1	4.36
COc1ccc2oc(=N)c(C(=O)Nc3ccc(F)cc3)cc2c1	26.6
Cc1ccc(C(=O)NCC(=O)OCC(=O)Nc2ccc(Cl)cn2)cc1	-0.612
CC1(C)CC(=O)c2cnc3nc4ccccc4n3c2C1	-42.2
COc1ccc(OC)c(/C=N/n2c(COc3ccccc3)n[nH]c2=S)c1	12.2
Cc1ccc(CS(=O)(=O)CC(C)(O)c2ccccc2)cc1 (centres unmarked)	9.15
Cc1ccc(OCCn2cc(Br)c(=O)[nH]c2=O)cc1	11
CC(=O)NCCn1ccc2ccccc21	4.61
CCc1ccc(NC(=O)C(NS(=O)(=O)c2ccc3c(c2)CCN3C(C)=O)C(C)C)cc1 (centres unmarked)	2.68
COc1ccccc1C(=O)n1nc(-c2ccccc2)nc1NCc1ccco1	-22.1
O=C(NCc1ccncc1)C(=O)NCC1OCCN1S(=O)(=O)c1cc(F)ccc1F (centres unmarked)	1.2
